According to article PMC6919601, “Identification of Plasmodium dipeptidyl aminopeptidase allosteric inhibitors by high throughput screening” (PLoS ONE, 2019):
The whole screen tested about 110,000 compounds, of which about 230 (0.21%) showed an effect of 50% or more. The list shows a part of the results.

Target: DPAP1 (Plasmodium falciparum, UniProt Q8IIJ9)
Experiment: primary screen, percent inhibition; read by cleavage of a fluorogenic dipeptide substrate; higher = more effect of the substance
Set-up: species or system P. falciparum D10 trophozoite lysates; single well
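Note: 30 min substrate incubation versus DMSO and 10 µM JCP410 controls.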

Chain of DPAP1 (Q8IIJ9 whole entry, looked up): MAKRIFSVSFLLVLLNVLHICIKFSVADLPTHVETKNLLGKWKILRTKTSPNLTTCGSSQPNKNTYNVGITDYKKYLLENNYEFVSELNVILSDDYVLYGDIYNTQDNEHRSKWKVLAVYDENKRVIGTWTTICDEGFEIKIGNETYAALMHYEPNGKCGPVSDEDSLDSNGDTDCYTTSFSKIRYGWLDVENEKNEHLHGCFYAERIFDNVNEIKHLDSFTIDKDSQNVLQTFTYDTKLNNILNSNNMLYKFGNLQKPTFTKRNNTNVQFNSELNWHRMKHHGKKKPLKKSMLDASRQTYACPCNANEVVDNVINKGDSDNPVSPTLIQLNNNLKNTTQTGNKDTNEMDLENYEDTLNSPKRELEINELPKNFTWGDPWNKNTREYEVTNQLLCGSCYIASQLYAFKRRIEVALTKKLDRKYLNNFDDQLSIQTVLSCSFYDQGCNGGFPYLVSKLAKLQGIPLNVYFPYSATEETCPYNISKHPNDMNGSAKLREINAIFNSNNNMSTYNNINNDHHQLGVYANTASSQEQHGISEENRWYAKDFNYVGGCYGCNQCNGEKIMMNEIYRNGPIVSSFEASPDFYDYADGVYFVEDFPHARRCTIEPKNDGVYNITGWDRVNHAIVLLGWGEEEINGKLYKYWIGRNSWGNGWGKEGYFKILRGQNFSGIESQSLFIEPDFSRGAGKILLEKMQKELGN

Point of comparison: `O=C(NCc1ccccn1)c1ccc(Cn2c(SCc3ccc(F)cc3)nc3cccnc32)cc1`, “% Inhibition @ 10 uM” value 0.174%. Against it:
- CCN1CCC(N2CCN(C(C)=O)CC2)CC1 — lower, -0.0908%
- O=C(Cn1cnc2onc(-c3ccc(F)cc3)c2c1=O)Nc1ccc(Cl)cn1 — higher, 5.52%
- CN1C(=O)NC(=O)/C(=C\c2cccn2C)C1=O — higher, 5.31%
- Cc1cccc(OCc2nnc(SCC(=O)Nc3nccs3)o2)c1 — lower, -7.34%
- O=C(Cn1ncc2ccsc2c1=O)NCCN1CCOCC1 — higher, 3.59%
- CCOC(=O)C1CCN(Cc2ccc(OC)c(OCC)c2)CC1 — lower, -1.92%
- Cc1nn(C(C)C(=O)NCCc2c[nH]c3ccccc23)c(=O)c2c1sc1ccccc12 (centres unmarked) — lower, -6.47%
- CSc1nnc(NC(=O)c2cc(=O)c3cc(C)cc(C)c3o2)s1 — lower, -1.47%
- O=C(C1CCN(S(=O)(=O)c2cccs2)CC1)N1CCC(Cc2ccccc2)CC1 — lower, -2.65%
- Cc1nn(C)cc1CNC(=O)c1ccc(Br)o1 — lower, -4.24%
- COc1ccccc1-c1c(C)nn2c(SCC(=O)N3CCN(C4CCCCC4)CC3)cc(C)nc12 — lower, -5.32%
- COc1ccc(S(=O)(=O)N(C(=O)c2ccncc2)c2ccc3oc4c(c3c2)CCCC4)cc1 — lower, -0.123%
- Cc1c2cnn(CC(=O)NCCCc3ccccc3)c(=O)c2c(C)n1Cc1cccc(Cl)c1 — lower, -3.96%
- Cc1ccnc(NS(=O)(=O)c2ccc(-c3cc(C)no3)cc2)c1 — higher, 0.453%
- O=C(c1cc(-c2ccc3c(c2)OCO3)nc2ccccc12)N1CCOCC1 — lower, -5.49%
- COc1ccc(OC)c(C2C3=C(O)CCCC3=NC(C)=C2C(=O)Nc2ccc(Br)cn2)c1 (centres unmarked) — higher, 3.05%
- CN(C)Cc1ccccc1Sc1ccc(O)cc1 — higher, 1.19%
- CCOc1ccccc1-c1nc(-c2cc3ccc(C)cc3nc2O)no1 — lower, -3.5%
- COc1ccccc1NC(=O)C1=C(C)Nc2nc(CCCO)nn2C1c1ccc2c(c1)OCO2 (centres unmarked) — higher, 2.4%
- CC12CCC(C(=O)N(CN3CCOCC3)C1=O)C2(C)C (centres unmarked) — lower, -0.28%
- CCOC(=O)C1=C(C)N=c2s/c(=C\c3ccc(C)o3)c(=O)n2C1c1ccc(Cl)cc1 (centres unmarked) — higher, 11.9%
- COc1cccc(C2C(C(=O)c3ccc4c(c3)CC(C)O4)=C(O)C(=O)N2CCN2CCOCC2)c1 (centres unmarked) — lower, -3.77%
- O=C(c1cc2c(=O)oc3ccccc3c2s1)N1CCN(c2ncccn2)CC1 — lower, -4.23%
- CCOc1ccc(C(=O)N2CCC3(CC2)N=C(c2ccc(C)cc2)C(=O)N3)cc1OCC — higher, 3.05%
- CCOCCCNC(=O)c1c(OC)cccc1OC — lower, -7.37%
- CC(=O)c1cc2c(cc1NC(=O)c1ccccc1Cl)OCO2 — lower, -7.28%
- CCC1CCCCN1CCNC(=O)CCCCn1c(=S)[nH]c2c([nH]c3ccc(OC)cc32)c1=O (centres unmarked) — lower, -3.95%
- CCn1ncc(Cl)c1C(=O)Nc1cccc(OC)c1 — lower, -2.76%
- CCn1c(C(=O)NCc2ccccc2OC)cc2sc(Cl)cc21 — lower, -4.85%
- Cc1nc2cc(C(=O)NCCN3CCOCC3)ccc2n1-c1cccc(F)c1 — higher, 1.2%
- Cc1ccccc1C(=O)c1cccn1CC(=O)NCCCSC1CCCCC1 — lower, -4.04%
- CCOCCCNC(=O)C1CCN(c2nc3ccc(OCC)cc3s2)CC1 — lower, -5.19%
- COc1ccccc1OCC(=O)Nc1ccc(S(=O)(=O)NC(C)=O)cc1 — higher, 1.28%
- CC(C)CC(=O)N1CCN(C(=O)c2ccc(F)cc2)CC1 — lower, -3.39%
- O=C(CC1C(=O)Nc2ccccc2S1=O)Nc1cccc(Cl)c1 (centres unmarked) — lower, 0.161%
- O=C(NCCCN1CCCC1)C(c1ccccc1)N1Cc2ccccc2C1=O (centres unmarked) — higher, 0.56%
- CS(=O)(=O)CCC(C(=O)Nc1cccnc1)N1Cc2ccccc2C1=O (centres unmarked) — higher, 5.8%
- COc1ccc(C2C(C#N)=C(N)Oc3cc(O)ccc32)cc1OC (centres unmarked) — lower, -4.67%
- N#Cc1cc(Sc2ccc3ccccc3c2)ccc1N — lower, -4.06%
- COc1cccc2c(O)c(C(=O)O)cnc12 — higher, 0.51%
- Cc1cc(C)cc(NC(=O)c2ccccc2Br)c1 — higher, 5.56%
- COc1cccc2c1Oc1nc(-c3cc(Cl)ccc3O)nc(O)c1C2 — higher, 2.32%
- Cc1ccc(NC(=O)C2=Cc3sc(C)c(C)c3CS2)nc1 — higher, 18.7%
- COc1ccccc1N1CCN(C(=O)c2ccc(Cl)c(Cl)c2)CC1 — lower, -5.13%
- N#CCSc1nc2ccc(Nc3nc(N4CCOCC4)nc(N4CCOCC4)n3)cc2s1 — lower, -0.725%
- CC(Oc1ccc(Cl)cc1Cl)C(=O)N1CCN(c2ccc(Cl)cc2)CC1 (centres unmarked) — higher, 5.31%
- CCOc1ccc(NC2=NC(=O)CC(C(=O)Nc3ccccc3)N2)cc1 (centres unmarked) — higher, 0.214%
- CCOc1ccc(NC(=O)COc2ccc(F)cc2)cc1 — lower, -1.28%
- CCCCn1c(NCc2ccccn2)nc2ccccc21 — lower, -2.65%
